Data reported in the supplement of paper PMC7826260.
This is one part of the list. One pool of 16,384 single-stranded DNAs met each Rep nickase domain in vitro (1 h at 37 °C, 3 µM enzyme); the outer parts of the 90-letter strands are left off. Numbers give uncut DNA relative to the enzyme-free pool, as log2; the lower, the more was cut; hits are not called. The scaling is to total reads; values above 0 arise when much of the pool is cut.

How the values were obtained:
Test in all cases: uncleaved DNA left, log2 of reads against the no-enzyme library (log2 ratio); higher = less cleavage (more negative = more Rep cleavage of the k-mer); sequences stand for … in CTCGTCCG…ACCGGAGA
[1] = test system: T1, Rep nickase domain of Muscovy duck circovirus
T1 sequence (residues 1-111 of Rep, tag left off): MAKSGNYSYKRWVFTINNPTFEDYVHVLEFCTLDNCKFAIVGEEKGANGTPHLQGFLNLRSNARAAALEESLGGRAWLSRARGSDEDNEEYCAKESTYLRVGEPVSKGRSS
Experimental: (§1)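 A pool of 90-nt single-stranded DNAs with seven random bases just before the constant AC of the nick site (name = the seven bases) was cut by 3 µM recombinant His6-SUMO-tagged Rep nickase domain (300 nM DNA, 50 mM HEPES pH 8.0, 50 mM NaCl, 1 mM MnCl2, 1 h, 37 °C, three replicates). Uncut DNA was amplified and sequenced.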

[2] = test system: T2, Rep nickase domain of banana bunchy top virus
T2 sequence (residues 1-94 of Rep, tag left off): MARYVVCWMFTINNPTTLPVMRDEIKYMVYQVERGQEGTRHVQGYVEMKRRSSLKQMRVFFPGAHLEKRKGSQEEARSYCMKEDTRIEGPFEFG
Experimental: as §1

[3] = test system: T3, Rep nickase domain of cabbage leaf curl virus
T3 sequence (residues 1-116 of Rep, tag left off): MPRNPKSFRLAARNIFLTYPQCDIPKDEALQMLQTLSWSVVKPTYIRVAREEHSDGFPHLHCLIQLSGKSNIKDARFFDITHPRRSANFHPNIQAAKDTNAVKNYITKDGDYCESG
Experimental: as §1

[4] = test system: T4, Rep nickase domain of chickpea chlorotic dwarf virus
T4 sequence (residues 1-124 of Rep, tag left off): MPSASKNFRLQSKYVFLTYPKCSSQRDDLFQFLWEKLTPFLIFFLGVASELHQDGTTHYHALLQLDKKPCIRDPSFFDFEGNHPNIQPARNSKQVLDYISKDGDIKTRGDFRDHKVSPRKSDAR
Experimental: as §1

[5] = test system: T5, Rep nickase domain of faba bean necrotic yellows virus
T5 sequence (residues 1-98 of Rep, tag left off): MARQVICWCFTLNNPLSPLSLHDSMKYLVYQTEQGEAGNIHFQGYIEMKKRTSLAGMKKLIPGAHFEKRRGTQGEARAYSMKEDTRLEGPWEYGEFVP
Experimental: as §1

[6] = test system: T6, Rep nickase domain of maize striate mosaic virus
T6 sequence (residues 1-117 of Rep, tag left off): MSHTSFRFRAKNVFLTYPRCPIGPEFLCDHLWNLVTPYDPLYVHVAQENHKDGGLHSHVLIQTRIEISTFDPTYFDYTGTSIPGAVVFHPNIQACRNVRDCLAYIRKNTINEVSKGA
Experimental: as §1

[7] = test system: T7, Rep nickase domain of porcine circovirus 2
T7 sequence (residues 2-116 of Rep, tag left off): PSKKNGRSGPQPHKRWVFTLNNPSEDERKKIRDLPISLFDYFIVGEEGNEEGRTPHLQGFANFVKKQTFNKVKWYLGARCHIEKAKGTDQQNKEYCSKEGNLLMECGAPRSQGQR
Experimental: as §1

[8] = test system: T8, Rep nickase domain of tomato yellow leaf curl virus
T8 sequence (residues 1-136 of Rep, tag left off): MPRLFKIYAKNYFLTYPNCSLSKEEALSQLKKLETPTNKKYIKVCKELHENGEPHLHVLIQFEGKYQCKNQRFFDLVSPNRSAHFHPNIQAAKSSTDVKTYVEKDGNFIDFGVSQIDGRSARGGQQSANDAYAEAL
Experimental: as §1

[9] = test system: T9, Rep nickase domain of wheat dwarf virus
T9 sequence (residues 1-137 of Rep, tag left off): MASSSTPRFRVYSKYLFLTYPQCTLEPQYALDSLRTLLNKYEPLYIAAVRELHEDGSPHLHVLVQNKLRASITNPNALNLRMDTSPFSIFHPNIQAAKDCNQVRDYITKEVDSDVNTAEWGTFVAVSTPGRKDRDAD
Experimental: as §1

Sequence | uncleaved DNA left (log2) [1] | uncleaved DNA left (log2) [2] | uncleaved DNA left (log2) [3] | uncleaved DNA left (log2) [4] | uncleaved DNA left (log2) [5] | uncleaved DNA left (log2) [6] | uncleaved DNA left (log2) [7] | uncleaved DNA left (log2) [8] | uncleaved DNA left (log2) [9]
ATGCTCC | -0.0795 | -0.159 | -0.017 | 0.111 | -0.128 | 0.286 | -0.0622 | -0.202 | -0.0241
TTCAGCG | 0.099 | 0.119 | -0.565 | 0.707 | 0.161 | -0.688 | 0.301 | 0.139 | 0.0824
CGCCGAT | 0.0956 | -0.0587 | 0.0973 | 0.381 | 0.0432 | 0.394 | -0.00129 | -0.0204 | -0.0322
TGATTGA | 0.0987 | 0.0755 | 0.00693 | 0.273 | 0.167 | -0.401 | 0.109 | 0.081 | 0.0384
AACGCTG | 0.00474 | 0.0389 | 0.264 | 1.71 | -0.0145 | 1.81 | 0.191 | -0.0768 | -0.0555
CCCAGTG | 0.0573 | 0.0655 | -0.551 | -0.375 | 0.118 | -1.12 | 0.107 | 0.114 | -0.134
CGTAGAG | -0.164 | 0.00204 | -0.623 | -0.479 | -0.113 | -1.05 | 0.122 | 0.0443 | -0.0654
CGCCGGT | 0.0287 | -0.00717 | 0.281 | 0.352 | 0.103 | 0.499 | 0.168 | 0.0534 | -0.0242
GTAAGCG | 0.0179 | -0.0534 | -0.721 | 0.52 | -0.0242 | -0.559 | 0.196 | 0.00485 | -0.0796
GGAAAGC | 0.0155 | 0.0407 | 0.791 | 1.79 | -0.00327 | 1.98 | 0.225 | -0.0216 | 0.124
CCGGTAG | -0.0624 | -0.148 | -0.819 | -0.265 | -0.0258 | -0.762 | 0.173 | -0.0643 | -0.0855
GGTTAGG | 0.102 | 0.0286 | 0.402 | 1.17 | 0.00288 | 1.46 | 0.184 | 0.0532 | 0.109
ACATTAT | -0.248 | -0.0267 | -0.18 | -1.22 | -0.00475 | -0.869 | -0.656 | -0.226 | -0.0119
TGGGGAC | 0.0784 | 0.236 | 0.977 | 1.9 | -0.0338 | 2.35 | 0.224 | 0.0501 | 0.304
TGATTCT | -3.2 | -0.123 | -0.195 | -2.14 | -0.00513 | -0.727 | -2.76 | -0.0763 | -0.312
TTTGAGT | 0.0376 | -0.185 | -0.522 | -0.907 | 0.0327 | -1.02 | -0.0425 | -0.0471 | -0.161
TCATTCA | -0.0886 | 0.0284 | -0.102 | -1.16 | 0.0653 | -1.03 | -0.154 | 0.0494 | 0.0287
AAAGTGG | 0.0827 | 0.024 | -0.0363 | -0.00337 | 0.0486 | -0.712 | 0.144 | 0.0232 | -0.0471
CAAGTCA | -0.0161 | 0.112 | -0.0706 | -1.63 | -0.0391 | -0.618 | -0.025 | 0.109 | -0.0403

Sequence | uncleaved DNA left (log2) [1] | uncleaved DNA left (log2) [2] | uncleaved DNA left (log2) [3] | uncleaved DNA left (log2) [4] | uncleaved DNA left (log2) [5] | uncleaved DNA left (log2) [6] | uncleaved DNA left (log2) [7] | uncleaved DNA left (log2) [8] | uncleaved DNA left (log2) [9]
GCAGCCG | -0.0408 | -0.0188 | -0.966 | -0.357 | -0.0705 | -0.916 | 0.0682 | -0.024 | -0.105
CTGCTTG | 0.245 | 0.0332 | -0.393 | -0.864 | 0.063 | -0.891 | 0.158 | 0.0894 | -0.0158
ACGGAGC | -0.0023 | -0.0953 | -0.448 | -0.34 | 0.0164 | -0.762 | 0.0192 | 0.0223 | -0.146
AAGTCTC | -0.0702 | -0.167 | 0.119 | -0.795 | -0.13 | 0.00753 | -3.44 | 0.0307 | -0.0196
ATATGGT | -0.222 | -0.0256 | 0.112 | 0.763 | 0.0809 | 1.32 | -0.424 | -0.0982 | -0.0333
TTTTGTA | -0.434 | -0.0525 | -0.17 | -1.2 | 0.0656 | -0.613 | -0.392 | 0.0933 | -0.105
GACGATA | 0.0388 | -0.0119 | 0.24 | -0.735 | 0.0295 | 0.723 | -0.053 | -0.0978 | 0.035
AAGCCGC | 0.0361 | -0.185 | -0.559 | -0.71 | -0.0279 | -0.941 | -0.00484 | -0.15 | -0.306
GCTGCAT | -0.00918 | 0.0422 | 0.0385 | 0.591 | -0.0803 | 0.36 | -0.0686 | -0.062 | -0.00986
CCAACTC | 0.0113 | -0.0347 | -0.082 | -1.63 | 0.0274 | -0.424 | 0.0221 | -0.0894 | -0.0387
ATAGGGA | 0.112 | 0.0941 | 0.342 | 1.05 | 0.0893 | 0.913 | 0.112 | -0.107 | 0.122
ACATTCT | -0.912 | 0.0562 | -0.552 | -2.54 | -0.0289 | -1.01 | -1.53 | -0.0818 | -0.0386
TCGCCCC | 0.0788 | 0.00752 | 0.11 | -0.0835 | -0.118 | -0.161 | -0.255 | -0.115 | 0.0628
CGAGCGT | -0.00258 | 0.0822 | -0.0284 | 0.186 | 0.0588 | -0.177 | 0.105 | 0.0485 | 0.0166
GGAATGT | 0.0468 | 0.196 | 0.694 | 1.74 | 0.127 | 1.98 | 0.228 | 0.123 | 0.14
ACACCCG | -0.0638 | -0.031 | -0.879 | -0.278 | 0.0373 | -0.83 | 0.067 | -0.128 | -0.122
CCGCAGG | -0.0188 | -0.116 | 0.125 | 0.366 | -0.00191 | -0.0665 | 0.063 | -0.0869 | -0.18
GCAACCG | -0.0752 | -0.111 | -0.826 | -0.834 | -0.126 | -0.97 | -0.136 | -0.148 | -0.23
GATATCG | 0.0875 | -0.0106 | -0.779 | -0.395 | -0.000604 | -0.885 | 0.0734 | -0.0709 | -0.143

Sequence | uncleaved DNA left (log2) [1] | uncleaved DNA left (log2) [2] | uncleaved DNA left (log2) [3] | uncleaved DNA left (log2) [4] | uncleaved DNA left (log2) [5] | uncleaved DNA left (log2) [6] | uncleaved DNA left (log2) [7] | uncleaved DNA left (log2) [8] | uncleaved DNA left (log2) [9]
CGGTATG | -0.00485 | -0.0759 | -0.0894 | 0.17 | -0.0365 | 0.27 | -0.00153 | 0.00406 | -0.0807
CGCAGAC | -0.0352 | -0.0924 | -0.0479 | 0.297 | -0.105 | 0.0951 | 0.144 | -0.122 | 0.0155
CTGAAAA | 0.0722 | 0.076 | 0.119 | 0.142 | 0.0593 | -0.458 | 0.193 | 0.061 | 0.243
TCGACGT | 0.0448 | -0.0375 | 0.0208 | 0.442 | -0.105 | 0.859 | -0.0297 | 0.0333 | 0.151
GCCCGAT | -0.0935 | -0.0974 | 0.118 | 0.601 | -0.0205 | 0.815 | -0.00119 | -0.058 | -0.148
GTGTGTA | 0.0731 | 0.112 | 0.292 | 0.864 | 0.00986 | 1.68 | 0.0229 | 0.166 | 0.0849
TATGCTC | -0.0974 | -0.192 | -0.456 | -1.64 | -0.216 | -1.12 | -0.18 | -0.0819 | -0.157
ATTAATT | -1.76 | -1.63 | -0.0307 | -2.42 | 0.0949 | -0.671 | -3.35 | -0.0304 | -0.0253
ACCGAGT | -0.0529 | -0.0196 | -0.0545 | 0.029 | 0.0332 | -0.665 | 0.00609 | 0.0707 | -0.192
TTGAATT | -0.0381 | -0.518 | -0.0541 | -2.34 | -0.229 | -0.416 | -2.82 | 0.0272 | 0.0113
TGGTTAT | -0.236 | -0.0615 | 0.349 | 0.527 | -0.0806 | 1.29 | -1.22 | 0.0517 | 0.0738
AAAGCCA | -0.091 | -0.0699 | -0.195 | -1.61 | -0.0822 | -0.429 | -0.023 | -0.0901 | -0.0596
GCATGTA | -0.0253 | 0.0339 | -0.0208 | -0.0034 | 0.0158 | -0.16 | -0.0663 | -0.0652 | -0.0422
GGCCCGA | 0.0054 | 0.0988 | 0.568 | 1.27 | -0.169 | 1.61 | 0.0618 | -0.0108 | 0.018
AAACCGT | 0.0254 | 0.00969 | -0.411 | -1.72 | 0.0806 | -0.865 | -0.0159 | 0.0606 | -0.0862
CGCCGGG | 0.0534 | -0.0129 | 0.503 | 0.707 | 0.0648 | 1.28 | 0.124 | 0.0897 | 0.0695
CGCACTC | -0.0393 | -0.113 | 0.0934 | 0.223 | -0.00624 | 0.268 | 0.0114 | -0.0163 | 0.0507
AGGTGGA | -0.0371 | 0.00422 | 0.154 | 0.45 | -0.0397 | 0.619 | 0.071 | -0.0684 | -0.0665
